Read-outs that look alike come from different tables or passages of the source. Residues, ends and D or L forms follow the SMILES beside them.
Columns and labels:
293 cells = system: 293 cells
Protocol: The 293 human embryonic kidney cell line (from the Cell Bank of the Chinese Academy of Sciences) was seeded on a 96-well plate with a concentration of 400,000/ml and incubated at 37°C, under 5% CO2 for 24 hours. The test drugs were then added. […] The positive control drug ganciclovir was in a serial dilution of 6000µg/ml to 11.7µg/ml. Cells at each concentration were seeded in 3 wells, 100µl per well, and normal cells were setup as controls. Cells were incubated at 37°C and under 5% CO2 for 6 days. A cytopathic effect (CPE) was observed under an inverted microscope everyday. Morphological change of cells under 25% was defined "+", 26%-50% was defined "++", 51%-75% was defined "+++", and 76%-100% was defined "++++". Toxic dose 50 (TD50) and toxic dose 0 (TD0) of the drugs were calculated by the Reed-Muench method.

HIV = system: HIV
Protocol: Specifically, MT-4 cells were seeded on a 96-well plate with concentrations of 400,000/ml and incubated at 37°C and under 5% CO2 for 24 hours. The medium was discarded when a cell monolayer was formed. Then a solution containing HIV at 100 TCID50 was added, normal cells and virus infected cells were setup as controls. Cells were incubated at 37°C and under 5% CO2 for 2 hours. […] The drugs were 1:2 diluted into 8 concentrations (i.e. 12000ng/ml~24ng/ml). Diluted drugs were added into wells, 3 wells per concentration. Cells were incubated at 37°C and under 5% CO2 for 5-7 days prior to analyzing viral protein P24 assay. The experiment was performed in triplicate.

[1] = 293 cells, 6 days, CPE method, mean of triplicate experiments

Compound	toxic dose 0 (TD0) (293 cells; [1])	toxic dose 50 (TD50) (293 cells; [1])	inhibition of HIV-1 (HIV; MT-4 cell cultures, viral P24 assay, result in words)	toxic dose 0 (TD0) (293 cells)	toxic dose 50 (TD50) (293 cells)	inhibition of HIV-1 (HIV)
CC(C)C[C@H](NC(=O)[C@H](CCCCN)NC(=O)[C@@H](N)Cc1ccc(O)cc1)C(=O)N1CCC[C@H]1C(=O)NCC(=O)N[C@@H](Cc1c[nH]cn1)C(=O)N[C@@H](Cc1c[nH]cn1)C(=O)N[C@@H](Cc1c[nH]cn1)C(=O)N[C@@H](Cc1c[nH]cn1)C(=O)N[C@@H](Cc1ccc(O)cc1)C(=O)N[C@@H](CCCNC(=N)N)C(=O)N1CCC[C@H]1C(=O)O [AP-9] (H-YKLPGHHHHYRP-OH; N-terminus and C-terminus assumed)	> 1000 ± 0 µg/mL	> 1000 ± 0 µg/mL	capable of inhibiting HIV-1	–	–	–
AP-1: high-affinity peptide antagonist targeting HAb18G/CD147, amino acid sequence SEQ ID NO:3 (MTHDPVISLPTT)	–	–	–	> 1000 ± 0 µg/mL	> 1000 ± 0 µg/mL	not capable of inhibiting HIV-1
AP-6: high-affinity peptide antagonist targeting HAb18G/CD147, amino acid sequence SEQ ID NO:8 (YPFHHKHWHRPN)	–	–	–	> 1000 ± 0 µg/mL	> 1000 ± 0 µg/mL	not capable of inhibiting HIV-1
